Article PMC11911400, “Mechanism of ASF1 engagement by CDAN1” (Nature Communications, 2025)
Where a chain is given by its changes, count along the chain named. No constants are given. Whether binding was seen depends on the method and setting. In cells and extracts the contact can be indirect. Some entries that bind do so weakly or less than the wild type.

Amino acid sequences for entries named in this document (tags omitted).
UniProt Q9NVP2: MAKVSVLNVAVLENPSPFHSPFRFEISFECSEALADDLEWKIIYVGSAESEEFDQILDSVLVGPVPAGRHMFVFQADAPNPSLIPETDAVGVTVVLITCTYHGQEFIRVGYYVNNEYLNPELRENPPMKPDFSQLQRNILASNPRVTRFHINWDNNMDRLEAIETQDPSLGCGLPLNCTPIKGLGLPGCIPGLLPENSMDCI
UniProt Q9Y294: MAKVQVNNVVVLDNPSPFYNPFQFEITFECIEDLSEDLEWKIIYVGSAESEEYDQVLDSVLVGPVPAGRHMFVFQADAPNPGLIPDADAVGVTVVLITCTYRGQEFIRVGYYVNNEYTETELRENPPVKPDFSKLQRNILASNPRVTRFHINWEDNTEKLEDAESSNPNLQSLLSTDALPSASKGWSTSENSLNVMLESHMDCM

Legend:
[1] = target: T1, BDA1* HMHA2* ST-CDAN1 (human) (UniProt Q8IWY9); experiment: pull-down; Strep-Tactin pulldown of transiently transfected ST-CDAN1 variants from Flp-In 293 T-REx lysates; endogenous ASF1A, ASF1B and CDIN1 detected by immunoblotting; IP buffer with 1% Triton X-100, 1 hr at 4 °C
T1 sequence: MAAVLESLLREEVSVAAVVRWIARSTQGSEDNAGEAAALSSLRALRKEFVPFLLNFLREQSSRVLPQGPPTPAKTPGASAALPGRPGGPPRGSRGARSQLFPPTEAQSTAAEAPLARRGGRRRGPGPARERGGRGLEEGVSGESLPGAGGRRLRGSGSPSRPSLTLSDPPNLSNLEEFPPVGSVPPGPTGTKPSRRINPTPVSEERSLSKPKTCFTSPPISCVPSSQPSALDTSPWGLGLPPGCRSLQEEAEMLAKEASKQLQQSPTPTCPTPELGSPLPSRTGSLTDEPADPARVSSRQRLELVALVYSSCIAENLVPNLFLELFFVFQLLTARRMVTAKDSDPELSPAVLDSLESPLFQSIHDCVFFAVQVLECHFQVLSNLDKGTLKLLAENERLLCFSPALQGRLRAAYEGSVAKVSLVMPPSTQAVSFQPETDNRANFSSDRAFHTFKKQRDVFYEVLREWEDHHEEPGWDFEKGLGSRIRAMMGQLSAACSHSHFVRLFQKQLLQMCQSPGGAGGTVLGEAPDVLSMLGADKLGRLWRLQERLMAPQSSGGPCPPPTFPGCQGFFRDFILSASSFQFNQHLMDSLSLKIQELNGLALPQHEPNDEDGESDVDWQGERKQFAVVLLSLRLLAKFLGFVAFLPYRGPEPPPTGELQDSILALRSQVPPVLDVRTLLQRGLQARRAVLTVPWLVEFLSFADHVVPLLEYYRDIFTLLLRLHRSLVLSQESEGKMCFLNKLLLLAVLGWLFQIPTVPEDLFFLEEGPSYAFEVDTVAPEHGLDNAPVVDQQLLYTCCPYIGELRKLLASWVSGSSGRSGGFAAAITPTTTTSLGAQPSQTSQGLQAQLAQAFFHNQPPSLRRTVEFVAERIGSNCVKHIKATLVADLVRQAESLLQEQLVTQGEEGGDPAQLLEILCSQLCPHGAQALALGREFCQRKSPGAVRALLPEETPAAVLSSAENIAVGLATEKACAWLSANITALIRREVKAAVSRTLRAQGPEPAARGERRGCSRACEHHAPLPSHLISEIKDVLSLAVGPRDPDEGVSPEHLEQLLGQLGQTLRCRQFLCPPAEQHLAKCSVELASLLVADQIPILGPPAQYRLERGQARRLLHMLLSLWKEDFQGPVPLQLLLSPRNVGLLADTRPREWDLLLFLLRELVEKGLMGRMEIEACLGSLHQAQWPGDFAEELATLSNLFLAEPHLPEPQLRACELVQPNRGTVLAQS

[2] = target: T2, Strep-CDAN1 HMHA1* HMHA2* (both H3 mimic helices mutated) (human) (UniProt Q8IWY9); experiment: as above
T2 sequence: T1 sequence with R541A, R544A, R548A, A824M, A825R, A826K

binding [1]	binding [2]	Substance
binds	no binding	endogenous ASF1B (from UniProt Q9NVP2 1-202)
binds	no binding	endogenous ASF1A (from UniProt Q9Y294 1-204)
